Sequences and labels used below:
B1: CPEB3 Ribozyme (parent)
chain: UAACAGGGGGCCACAGCAGAAGCGUUCACGUCGCAGCCCCUGUCAGAUUCUGGUGAAUCUGCGAAUUCUGCUGUAUAUCUC

The source gives no read counts; variants with many changes may rest on few reads.

Variants of B1 are the subject of this data set. The experiment in a line: self-cleavage, relative activity (ratio to wild type); higher = more cleavage; in vitro, sequencing. The gist of the method: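 For each CPEB3 ribozyme variant, relative activity is its cleaved/total read fraction divided by the unmutated ribozyme's. Barcoded error-prone PCR libraries were transcribed by T7 RNA polymerase (5 hours, 37°C) and held in DNase I for 15 min before an EDTA stop, with cleavage occurring throughout. Template-switching reverse transcription and Illumina sequencing were used to read the RNAs. A 5-read minimum applied, and results are the mean of three batches.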
Regarding UAACAGGGGGCCACAGCAGAGGCGUUCACGUCGCAGCCCCUGUCAGAUCCUGGUGAAUCUGCAGAUCCUGCUGUGUACCUC, the self-cleavage is 0.07.
With UAACAGGGGGCCACAGCAGAGGCGUUCACGUCGCAGCCCCUGUCAGAUUCUGGUGAACCUGCGAAUUCUGCUGUUUAUCUC, the self-cleavage was 0.55.
Turning to UAACAGGGGGCCACAGCAGAGGCGUUCACGUCGCAGCCCCUGUCAGAAUCUGGUAAAUCUGCGAAUUCUGCCGUAUAUCUC, the self-cleavage is 0.06.
The same measure for UAACAGGGGGCCACAGCAGAGGCGUUCACGUCGCAGCCCCUGUCAGACUCUGGUGAAUCCGCGAAUUCUGCUGUAUACCUC: 0.06; for UAACAGGGGGCCACAGCAGAGGCGUUCACGUCGCAGCCCCUGUCAGAUUCUGGGGAAUCUGCGAAUUCUGAUGCAUAUCUC: 0.13; for UAACAGGGGGCCACAGCAGAGGCGUUCACGUCGCAGCCCCUGUCAGACUCUGGUGAAUCUGCGAAUUCUGCUGUACAUCUC: 0.46.
For the variant UAACAGGGGGCCACAGCAGAGGCGUUCACGUCGCAGCCCCUGUCAGAUACUGGUGAAUCUGCGAAUUCUGCAGUAUAUCUC, the self-cleavage turned out to be 0.09.
The value for UAACAGGGGGCCACAGCAGAGGCGUUCACGUCGCAGCCCCUGUCAGAUUCCGGUGAAUCCGCGAAUUCUGAUGUAUAUCUC was 0.19; that for UAACAGGGGGCCACAGCAGAGGCGUUCACGUCGCAGCCCCUGUCAGAUCCUGGUGUAUCUGCGAAUUCUGCUGUAUAUCUC was 0.14; that for UAACAGGGGGCCACAGCAGAGGCGUUCACGUCGCAGCCCCUGUCAGAUCCUGGUGGAUCUGCGAAUUCUGCUGUAUAUCUC was 0.7.
Regarding UAACAGGGGGCCACAGCAGAGGCGUUCACGUCGCAGCCCCUGUCAGAUUCCGGUGAAUCUGCGAAUACUGCCGUAUAUCUC, the self-cleavage was found to be 0.18.
For the variant UAACAGGGGGCCACAGCAGAGGCGUUCACGUCGCAGCCCCUGCCAGAUUCUGGUGAAUCUGCGAAUUCUGCCGAAUAUCUC, the self-cleavage is 0.28.
Take UAACAGGGGGCCACAGCAGAGGCGUUCACGUCGCAGCCCCUGUCAGAUACUGGUGAAUCUGCGAACUCUGCUGUAUAUCUC: the self-cleavage came out at 0.72.
For UAACAGGGGGCCACAGCAGAGGCGUUCACGUCGCAGCCCCUGUCAGAUUCUGGCGAAUCUGCGGAUUCUGCUGUAUAUCUC, the self-cleavage was determined as 0.41.
Turning to UAACAGGGGGCCACAGCAGAGGCGUUCACGUCGCAGCCCCUGUCAGAUCCUGGUGAAUCUGCGAAUACUGCUGUAUAUCUC, the self-cleavage turned out to be 0.2.
For UAACAGGGGGCCACAGCAGAGGCGUUCACGUCGCAGCCCCUGCCAGAUCCUGGUGAACCUGCGAAUUCUCCUGUAUAUCCC, the self-cleavage was 0.09.
UAACAGGGGGCCACAGCAGAGGCGUUCACGUCGCAGCCCCUGUCAGAUUCAGGUGAAUCUGCGAAUUCUGCUGUAUGUCUC: the self-cleavage turned out to be 0.85.
As for UAACAGGGGGCCACAGCAGAGGCGUUCACGUCGCAGCCCCUGUCAGAUUCUGGCGAAUCAGCGAAUUCUGCAGUAUAUCUC, the self-cleavage was found to be 0.12.
As for UAACAGGGGGCCACAGCAGAGGCGUUCACGUCGCAGCCCCUGUCAGAUUCUGGUGAACCUGCGAAUUCUGCUGUAUUUCUC, the self-cleavage turned out to be 0.06.
In the case of UAACAGGGGGCCACAGCAGAGGCGUUCACGUCGCAGCCCCUGACAGAUUCCGGUGAAUCCGCGAAUUCUGCAGUAUAUCUC, the self-cleavage was 0.26.
The value for UAACAGGGGGCCACAGCAGAGGCGUUCACGUCGCAGCCCCUGUCAGAUACUGGUGAAUCUGCGAAUUCCGCCGCAUAUCUC was 0.11; that for UAACAGGGGGCCACAGCAGAGGCGUUCACGUCGCAGCCCCUGUCAGAUUCUGGCGAAUCUGCGUAUUCUGCUGUAUACCUC was 0.09; that for UAACAGGGGGCCACAGCAGAGGCGUUCACGUCGCAGCCCCUGACAGAUUCUGGUGAAUCUGCGAAUUCUGCUGGAUAUCUC was 1.17.
On to UAACAGGGGGCCACAGCAGAGGCGUUCACGUCGCAGCCCCUGUCAGAUUCUGGCGAAUCUGCGAAUUCUGCUGUUUAUCUC, for which the self-cleavage worked out at 0.57.
Consider UAACAGGGGGCCACAGCAGAGGCGUUCACGUCGCAGCCCCUGUCAGACUCAGGUGAGUCCGCGAAUUCUGCUGUAUAUCUC, for which the self-cleavage was determined as 0.25.
Consider UAACAGGGGGCCACAGCAGAGGCGUUCACGUCGCAGCCCCUGUCAGAUCCUGGUGAAACUGCGAAUUCUGCUGUAUAUCUC, for which the self-cleavage turned out to be 0.06.
Regarding UAACAGGGGGCCACAGCAGAGGCGUUCACGUCGCAGCCCCUGCCAGAUUCUGGUGAAUCUGCGAAUUUUGCUGUAUAUCUC, the self-cleavage worked out at 0.33.
The same measure for UAACAGGGGGCCACAGCAGAGGCGUUCACGUCGCAGCCCCUGUCAGAUUCUGGCGAAUCUGCGAGUUCUGCUGUAUAUCUC: 0.33; for UAACAGGGGGCCACAGCAGAGGCGUUCACGUCGCAGCCCCUGACAGAUUCCGGUGAAUCUGCGGAUUCUGCUGUAUAUCUC: 0.24; for UAACAGGGGGCCACAGCAGAGGCGUUCACGUCGCAGCCCCUGUCAGAUUCAGGUGAAUCUGCGAAUUCUGCUGAAUAUCUC: 1.14.
With UAACAGGGGGCCACAGCAGAGGCGUUCACGUCGCAGCCCCUGUCAGAUUCUGGCGAAUCAGCGAAUUCUGCUGUAUAUCUC, the self-cleavage came to 0.16.
Regarding UAACAGGGGGCCACAGCAGAGGCGUUCACGUCGCAGCCCCUGUCAGAUUCUGGAGAAUCUGCGGGUUCCGCUGUAUAUCUC, the self-cleavage stood at 0.1.
The value for UAACAGGGGGCCACAGCAGAGGCGUUCACGUCGCAGCCCCUGUCAGAUCCUGGUGAAUCUGCGAAUUCUGCUGUAUAUCCC was 0.32.
For UAACAGGGGGCCACAGCAGAGGCGUUCACGUCGCAGCCCCUGUCAGAUUCCGGUGAAUCUGCGAAUUCUGCUGUAUAUCAC, the self-cleavage is 0.66.

Source of the values: the RNAGym collection of RNA variant scans (doi:10.1093/nar/gkz1192).
